# Laboratory results taken from PubChem BioAssay (NCI).
#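 Test compounds were applied to cells in 96-well plates for 48 hours at 5 doses. GI50 marks 50% less growth. TGI denotes the concentration required for complete inhibition of growth.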
# Test system: NCI-H322M lung
# Assay: NCI anticancer screen, dose series, 48 h
Structure (SMILES),GI50,TGI
CC1=C(C)C(=O)C(NCCN2CCOCC2)=C(Br)C1=O,14.8 µM,28.1 µM
O=c1cc(-c2ccccc2)oc2cc(OCCCCNCc3ccccc3)cc(O)c12,14.1 µM,28.1 µM
COc1cc(-c2nc3cc(Cl)c(Cl)cc3[nH]2)ccc1OCc1nnc(-c2ccc(Br)cc2)o1,31.6 µM,> 100 µM
CN1CCCN(Cc2ccc(C(=O)Nc3cccc(Nc4ccc5cc(O)ccc5n4)c3)cc2C(F)(F)F)CC1,16.2 µM,29.8 µM
